# From ChEMBL document CHEMBL1157539, “Thousands of chemical starting points for antimalarial lead identification” (Nature, 2010)
# The full ranking holds about 13,000 compounds; the median of “IFI” is about 4, and the highest 2% start at about 17. The list shows a part of the results.
# Assay: GSK_TCMDC: Inhibition Frequency Index (IFI). The number of non-kinase HTS assays where a compound showed > 50 % inhibition, expressed as a percentage of the number of such assays in which the compound was tested (-0 is zero)
# Assay type: functional
row,SMILES,IFI [%]
1,O=C(NCCCCN1CCC(c2ccc3c(c2OCCN2CCCC2)CCCC3)CC1)c1ccc(-c2ccc(C(F)(F)F)cc2)cc1,5.45
2,O=C(NCCc1ccccc1)N(Cc1cccc(-c2ccc(CNCc3ccc4c(c3)OCO4)cc2)c1)C1CCN(Cc2ccccc2)CC1,6.57
3,Nc1ncc(-c2ccc(F)cc2)cc1-c1nc2ccc(Cl)cc2[nH]1,5.04
4,COCC(C)n1c(SC(C)C(=O)Nc2cc([N+](=O)[O-])ccc2Cl)nc2ccccc2c1=O (stereo not given),5.92
5,CCN(CC)CCNC(=O)c1ccc(NC(=O)c2ccc(-c3cc(NC(=O)CC4CCCC4)ccc3C)cc2)cc1,8.7
6,O=C(NCCCCCN1CCC(c2c[nH]c3ccccc23)CC1)Nc1cccc(Cl)c1,6.85
7,Cc1ccccc1C1CCN(C2CCC(NC(=O)/C=C/c3cccc(F)c3)CC2)CC1 (stereo not given),6.67
8,CCc1c(CCNCCCCCCNCCc2ccc([N+](=O)[O-])cc2)ccc(OC)c1OC,6.94
9,Cc1cc(N/N=C/c2ccccc2[N+](=O)[O-])c2cc(F)ccc2n1,-0
10,O=C(O)c1cc(OCC(O)COc2ccc(O)c(C(=O)O)c2)ccc1O,-0
11,CCN(CC)CCCNc1ncc2c(-c3ccc(NC(=O)Nc4cc(C(F)(F)F)ccc4F)cc3)nn(C)c2n1,10.8
12,CC(C)C[C@H](Nc1ccc(C#N)c2ccccc12)C(=O)NC(C)(C)C12CC3CC(CC(C3)C1)C2,0.94
13,CS(=O)(=O)CCNCc1nc(-c2ccc3ncnc(Nc4ccc(OCc5cccc(F)c5)c(Cl)c4)c3c2)cs1,1.36
14,NC(=O)c1ccc(NCC(=O)Nc2cccc(-c3cccc(-c4nc5ccccc5[nH]4)c3)c2)cc1,6.6
15,Cc1ccn2c(C(=O)N3CCN(c4cccc5c4nc(-c4ccoc4)n5Cc4ccccn4)CC3)c(C)nc2c1,1.85
16,Cc1cccc(CNc2nc(C)cc(NCCC(=O)NCCOc3ccccc3)n2)c1,7.32
17,O=C(CSc1nccn1C1CCCCC1)Nc1cc(C(F)(F)F)ccc1Cl,1.96
18,COc1ccc(Cn2cncc2CN(CCC(C)C)C(=O)c2ccc(Cl)nc2Cl)cc1,2.82
19,Cc1ccc(C2(C)CN(CCCOc3cccc(-c4ccc(C(=O)NC(C)C)cc4)c3)CCO2)cc1 (stereo not given),7.55
20,CN(C)CCCNCc1cn(S(=O)(=O)c2ccccc2Cl)c2ccccc12,2.52
21,CCOc1ccc(-c2nonc2NC(=O)c2ccccc2F)cc1OCC,1.56
22,Cc1nc(NC(=N)N)nc2ccc(C(C)(C)C)cc12,4.65
23,CC(O)c1cccc(-c2ccc(Nc3ccnc4cc(-c5nccs5)ccc34)cc2)c1 (stereo not given),5.19

row,SMILES,IFI [%]
1,CC(Cc1ccc(NC(=O)c2ccc(NCCc3ccccc3)cc2)cc1)NCCc1cccc(Cl)c1 (stereo not given),7.41
2,Cc1cccc(CNc2nc(C)cc(N[C@@H](Cc3ccccc3)C(=O)NCCOc3ccccc3)n2)c1,17.1
3,Cc1cccc(Cn2ccc3c4c(N)nc(N)nc4ccc32)c1,2.46
4,Cc1ccc(F)c(OCC2CCN(c3ccc(C(=O)NC4CC4)cn3)CC2)c1,0
5,N#Cc1cnc(Nc2ccc(Oc3ccccc3)cc2)nc1Nc1cccc(S(N)(=O)=O)c1,3.01
6,Cc1ncccc1C(=O)Nc1cccc(-c2cccc(-c3nc4cc(C(F)(F)F)ccc4[nH]3)c2)c1,6.6
7,O=C1COc2cc(Cl)c(CNC3CCN(CCc4ccnc5c(F)cc(F)cc45)CC3)nc2N1,4.72
8,Cn1nc(-c2ccc(NC(=O)Nc3cc(C(F)(F)F)ccc3F)c(F)c2)c2cnc(NCCCn3ccnc3)nc21,5.84
9,COc1ccc(CCn2c(=N)c(C(=O)NCc3ccccc3)cc3c(=O)n4cccc(C)c4nc32)cc1,5.93
10,CC(=O)N(C)c1ccc(C(=O)Nc2cccc(-c3cccc(-c4nc5cccc(C)c5[nH]4)c3)c2)cc1,2.65
11,NCCc1cccc(-c2cnc3[nH]cc(-c4ccc(C(=O)O)cc4)c3c2)c1,2.97
12,O=C(/C=C/c1ccc(Cl)c(Cl)c1)NCCCCCN1CCCN(C(=O)Nc2ccc(F)c(F)c2)CC1,6.67
13,Cc1nc(C)c(-c2ccc(Oc3cccc(OC(F)(F)F)c3)cc2)c(O)c1Br,6.02
14,COc1ccc2[nH]cc(C3CCN(CCCCNC(=O)c4ccc(NC(=O)c5ccc(Cl)cc5)cc4)CC3)c2c1,2.26
15,Oc1c(C(Nc2ccccn2)c2ccc(Cl)cc2Cl)ccc2cccnc12 (stereo not given),4.64
16,Cc1c(C)c2c(c(C)c1O)CCC(C)(CCC(=O)O)O2 (stereo not given),1.52
17,CC(=O)Nc1ncc(C(=O)Nc2ccc(-c3cccc(-c4nc5cc(C(F)(F)F)ccc5[nH]4)c3)cc2)s1,6.42
18,CCCC(CC)n1ccc2c3c(N)nc(N)nc3ccc21 (stereo not given),4.55
19,O=C(NCCCN1CCCC1=O)NCc1ccccc1,0
20,COCC(=O)N(Cc1ccccc1-c1cccc(CNCc2ccc3c(c2)OCO3)c1)C1CCN(Cc2ccccc2)CC1,4.93
21,COc1ccc(CN2CCCN(Cc3cccc(C(=O)Nc4ccc(C)c(F)c4)c3)CC2)cc1,6.47
22,Cc1ccc(NC(=O)N2CCC(n3c(-c4ccccc4)nc4cccnc43)CC2)cc1F,2.38
